Assay results from article PMC8448743.
No constants are given. Whether binding was seen depends on the method and setting. In cells and extracts the contact can be indirect. Some binding calls cover weakened binding; strength is not graded here. For some of these results: Tags and fused reporters may be left off the sequences shown. Blank lines part the entries; values can stand above or below the molecule they belong to.

Protein sequences, listed by entry. Tags and fused reporters are not part of them.
UniProt Q9Y6K9: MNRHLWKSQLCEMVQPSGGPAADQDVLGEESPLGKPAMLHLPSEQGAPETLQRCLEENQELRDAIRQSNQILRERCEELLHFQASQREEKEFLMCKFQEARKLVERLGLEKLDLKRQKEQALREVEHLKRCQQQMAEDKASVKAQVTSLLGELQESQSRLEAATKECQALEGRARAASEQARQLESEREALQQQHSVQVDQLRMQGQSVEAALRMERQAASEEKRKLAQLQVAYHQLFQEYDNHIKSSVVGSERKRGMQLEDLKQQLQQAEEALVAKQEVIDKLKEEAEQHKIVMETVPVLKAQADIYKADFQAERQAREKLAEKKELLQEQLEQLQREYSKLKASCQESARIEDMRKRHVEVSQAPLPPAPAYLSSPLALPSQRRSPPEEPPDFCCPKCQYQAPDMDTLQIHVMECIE

Tests used:
[1] = molecular target: T1, Flag-TAB2 (human (cloned from SHSY5Y cDNA)) (UniProt Q9NYJ8); test: co-IP; HEK293T co-transfected with an HA-tagged and a Flag-tagged protein; whole cell lysate in low-salt lysis buffer (50 mM Hepes pH 7.5, 150 mM NaCl, 1% Triton X-100) on anti-Flag agarose overnight at 4 °C, six washes, immunoblot
T1 sequence: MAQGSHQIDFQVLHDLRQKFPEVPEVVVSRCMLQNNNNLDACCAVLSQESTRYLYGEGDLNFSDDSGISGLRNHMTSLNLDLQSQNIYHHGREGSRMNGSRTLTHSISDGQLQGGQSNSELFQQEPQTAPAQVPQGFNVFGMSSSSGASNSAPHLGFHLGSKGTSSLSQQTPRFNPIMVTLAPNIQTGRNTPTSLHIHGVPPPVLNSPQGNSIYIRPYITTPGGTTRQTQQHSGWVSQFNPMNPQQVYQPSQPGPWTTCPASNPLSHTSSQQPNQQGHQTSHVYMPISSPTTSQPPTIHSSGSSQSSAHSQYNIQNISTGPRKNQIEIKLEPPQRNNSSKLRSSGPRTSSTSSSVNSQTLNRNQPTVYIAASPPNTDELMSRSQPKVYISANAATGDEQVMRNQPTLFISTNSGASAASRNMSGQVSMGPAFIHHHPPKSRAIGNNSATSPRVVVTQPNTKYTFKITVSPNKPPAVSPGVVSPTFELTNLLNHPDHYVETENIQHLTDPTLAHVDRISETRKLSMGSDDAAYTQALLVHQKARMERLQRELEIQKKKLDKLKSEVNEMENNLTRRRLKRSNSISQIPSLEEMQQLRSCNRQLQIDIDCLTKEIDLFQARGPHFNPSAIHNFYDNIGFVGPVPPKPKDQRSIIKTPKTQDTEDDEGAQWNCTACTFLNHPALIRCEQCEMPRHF

[2] = molecular target: Flag-NEMO (human (cloned from SHSY5Y cDNA)) (UniProt Q9Y6K9); test: as above
[3] = molecular target: T2, Flag-TRAF2 (human (cloned from SHSY5Y cDNA)) (UniProt Q12933); test: as above
T2 sequence: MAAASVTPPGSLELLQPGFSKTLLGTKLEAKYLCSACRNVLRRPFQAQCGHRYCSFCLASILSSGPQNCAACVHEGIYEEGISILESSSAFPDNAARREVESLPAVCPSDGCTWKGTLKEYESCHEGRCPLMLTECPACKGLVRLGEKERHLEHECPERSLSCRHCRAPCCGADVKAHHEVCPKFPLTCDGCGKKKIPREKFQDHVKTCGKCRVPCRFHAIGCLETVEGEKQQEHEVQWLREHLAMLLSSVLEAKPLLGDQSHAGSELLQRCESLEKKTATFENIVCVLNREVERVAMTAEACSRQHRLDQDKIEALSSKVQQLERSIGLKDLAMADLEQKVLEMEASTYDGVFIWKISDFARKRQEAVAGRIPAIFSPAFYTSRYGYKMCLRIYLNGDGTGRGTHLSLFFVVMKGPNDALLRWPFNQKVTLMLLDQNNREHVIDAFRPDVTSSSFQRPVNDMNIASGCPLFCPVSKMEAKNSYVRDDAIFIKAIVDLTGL

[4] = molecular target: T3, Flag-TAK1 (human (cloned from SHSY5Y cDNA)) (UniProt O43318); test: as above
T3 sequence: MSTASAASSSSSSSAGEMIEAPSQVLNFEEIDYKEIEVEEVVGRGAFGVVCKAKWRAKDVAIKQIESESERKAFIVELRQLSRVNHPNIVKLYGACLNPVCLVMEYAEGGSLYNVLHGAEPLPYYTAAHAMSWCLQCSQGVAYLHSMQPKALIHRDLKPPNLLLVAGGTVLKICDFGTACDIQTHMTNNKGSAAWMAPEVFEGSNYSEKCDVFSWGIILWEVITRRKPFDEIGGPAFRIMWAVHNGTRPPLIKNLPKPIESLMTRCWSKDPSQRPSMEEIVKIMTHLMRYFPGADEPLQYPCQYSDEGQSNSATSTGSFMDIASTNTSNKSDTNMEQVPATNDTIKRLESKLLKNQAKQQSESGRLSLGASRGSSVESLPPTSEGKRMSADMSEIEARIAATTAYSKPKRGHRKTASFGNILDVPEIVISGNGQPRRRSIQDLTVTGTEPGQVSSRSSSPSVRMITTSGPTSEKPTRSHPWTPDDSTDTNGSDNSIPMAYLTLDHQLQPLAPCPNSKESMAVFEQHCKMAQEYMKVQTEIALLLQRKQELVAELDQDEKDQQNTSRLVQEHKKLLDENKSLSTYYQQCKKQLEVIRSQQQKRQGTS

[5] = molecular target: T4, Flag-IKKα (human (cloned from SHSY5Y cDNA)) (UniProt O15111); test: as above
T4 sequence: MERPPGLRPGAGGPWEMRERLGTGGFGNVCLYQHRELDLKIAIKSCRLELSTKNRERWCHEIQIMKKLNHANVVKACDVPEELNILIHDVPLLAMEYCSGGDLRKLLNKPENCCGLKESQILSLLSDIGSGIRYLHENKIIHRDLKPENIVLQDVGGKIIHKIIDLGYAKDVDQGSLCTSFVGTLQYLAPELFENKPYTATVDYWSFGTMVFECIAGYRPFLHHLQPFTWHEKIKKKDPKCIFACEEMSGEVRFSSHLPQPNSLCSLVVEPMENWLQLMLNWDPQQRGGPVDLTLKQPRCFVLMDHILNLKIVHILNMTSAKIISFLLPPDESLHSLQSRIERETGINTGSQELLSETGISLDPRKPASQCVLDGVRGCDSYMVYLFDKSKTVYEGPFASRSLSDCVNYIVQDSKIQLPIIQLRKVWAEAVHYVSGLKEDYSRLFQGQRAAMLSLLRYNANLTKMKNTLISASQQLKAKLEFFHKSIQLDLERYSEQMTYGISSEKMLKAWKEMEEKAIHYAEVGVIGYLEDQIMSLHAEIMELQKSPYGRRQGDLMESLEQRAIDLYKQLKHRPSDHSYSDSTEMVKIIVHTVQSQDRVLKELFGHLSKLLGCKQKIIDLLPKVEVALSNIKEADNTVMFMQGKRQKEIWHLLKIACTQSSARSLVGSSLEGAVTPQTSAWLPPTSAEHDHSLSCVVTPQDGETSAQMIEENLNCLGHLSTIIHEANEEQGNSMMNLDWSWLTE

[6] = molecular target: T5, Flag-TAB1 (human (cloned from SHSY5Y cDNA)) (UniProt Q15750); test: as above
T5 sequence: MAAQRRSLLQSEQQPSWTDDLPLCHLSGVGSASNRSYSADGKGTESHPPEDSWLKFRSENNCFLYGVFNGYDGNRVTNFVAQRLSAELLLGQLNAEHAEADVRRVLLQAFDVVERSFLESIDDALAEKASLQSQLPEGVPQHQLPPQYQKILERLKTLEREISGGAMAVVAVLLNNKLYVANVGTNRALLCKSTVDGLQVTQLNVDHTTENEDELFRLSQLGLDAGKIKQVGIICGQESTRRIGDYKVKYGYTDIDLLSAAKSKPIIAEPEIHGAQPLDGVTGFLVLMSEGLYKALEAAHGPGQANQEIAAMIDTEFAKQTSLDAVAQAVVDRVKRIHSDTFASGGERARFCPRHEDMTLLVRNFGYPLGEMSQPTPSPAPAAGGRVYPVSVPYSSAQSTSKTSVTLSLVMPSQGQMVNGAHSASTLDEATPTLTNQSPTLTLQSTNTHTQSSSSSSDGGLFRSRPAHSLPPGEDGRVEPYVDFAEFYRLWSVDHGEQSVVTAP

[7] = molecular target: T3, Flag-TAK1 (human (cloned from SHSY5Y cDNA)); test: co-IP; overexpressed TAK1 with endogenous CHIP, HEK293T or SHSY5Y cells, immunoblot
[8] = molecular target: T6, endogenous TAK1 (human (endogenous in HEK293T or SHSY5Y)) (UniProt O43318); test: co-IP; endogenous proteins, HEK293T or SHSY5Y lysate incubated with indicated antibodies overnight at 4 °C, Dynabeads protein G 2 h, immunoblot
T6 sequence: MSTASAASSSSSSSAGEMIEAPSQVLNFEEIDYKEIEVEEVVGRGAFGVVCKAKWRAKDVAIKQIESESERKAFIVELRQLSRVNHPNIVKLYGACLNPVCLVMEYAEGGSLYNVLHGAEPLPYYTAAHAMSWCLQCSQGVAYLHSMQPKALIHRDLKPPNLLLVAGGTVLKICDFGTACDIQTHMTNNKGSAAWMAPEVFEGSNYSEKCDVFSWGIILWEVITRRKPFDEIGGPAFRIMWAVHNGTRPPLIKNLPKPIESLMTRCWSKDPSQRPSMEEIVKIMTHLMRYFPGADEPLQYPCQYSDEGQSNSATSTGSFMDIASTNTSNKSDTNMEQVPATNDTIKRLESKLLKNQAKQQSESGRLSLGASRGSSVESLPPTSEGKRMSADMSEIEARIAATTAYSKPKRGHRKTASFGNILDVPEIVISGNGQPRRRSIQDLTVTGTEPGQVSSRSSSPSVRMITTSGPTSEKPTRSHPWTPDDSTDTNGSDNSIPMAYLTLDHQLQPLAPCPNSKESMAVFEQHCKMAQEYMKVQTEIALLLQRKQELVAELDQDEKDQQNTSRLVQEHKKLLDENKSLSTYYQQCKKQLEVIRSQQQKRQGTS

[9] = molecular target: Flag-NEMO (human (cloned from SHSY5Y cDNA)) (UniProt Q9Y6K9); test: co-IP; HEK293T (WT or CHIP-/-) transfected with TAK1 and a partner, with or without CHIP, CHIP T246M or CHIP-specific siRNA; anti-Flag beads, blotted with anti-HA antibody
[10] = molecular target: Flag-CHIP (human (cloned from SHSY5Y cDNA)) (UniProt Q9UNE7); test: co-IP; HEK293T co-transfected with an HA-tagged and a Flag-tagged protein; whole cell lysate in low-salt lysis buffer (50 mM Hepes pH 7.5, 150 mM NaCl, 1% Triton X-100) on anti-Flag agarose overnight at 4 °C, six washes, immunoblot

binding [1]: no binding | binding [2]: no binding | binding [3]: no binding | binding [4]: binds | binding [5]: no binding | binding [6]: no binding
Molecule: HA-CHIP (carboxyl terminus of HSC70-interacting protein) (from UniProt Q9UNE7 1-303)

binding [7]: binds | binding [8]: binds
Molecule: endogenous CHIP (from UniProt Q9UNE7 1-303)

binding [9]: binds | binding [10]: binds
B1: HA-TAK1 (protein, UniProt O43318 1-606)
chain: MSTASAASSSSSSSAGEMIEAPSQVLNFEEIDYKEIEVEEVVGRGAFGVVCKAKWRAKDVAIKQIESESERKAFIVELRQLSRVNHPNIVKLYGACLNPVCLVMEYAEGGSLYNVLHGAEPLPYYTAAHAMSWCLQCSQGVAYLHSMQPKALIHRDLKPPNLLLVAGGTVLKICDFGTACDIQTHMTNNKGSAAWMAPEVFEGSNYSEKCDVFSWGIILWEVITRRKPFDEIGGPAFRIMWAVHNGTRPPLIKNLPKPIESLMTRCWSKDPSQRPSMEEIVKIMTHLMRYFPGADEPLQYPCQYSDEGQSNSATSTGSFMDIASTNTSNKSDTNMEQVPATNDTIKRLESKLLKNQAKQQSESGRLSLGASRGSSVESLPPTSEGKRMSADMSEIEARIAATTAYSKPKRGHRKTASFGNILDVPEIVISGNGQPRRRSIQDLTVTGTEPGQVSSRSSSPSVRMITTSGPTSEKPTRSHPWTPDDSTDTNGSDNSIPMAYLTLDHQLQPLAPCPNSKESMAVFEQHCKMAQEYMKVQTEIALLLQRKQELVAELDQDEKDQQNTSRLVQEHKKLLDENKSLSTYYQQCKKQLEVIRSQQQKRQGTS
